Reference: the BET-seq Pho4 binding data (Le et al. 2018)
The list shows a part of the results. Values were computed here from the reads of four pooled replicates and scatter widely.

Target: T1, Pho4 (S. cerevisiae) (UniProt P07270)
T1 sequence: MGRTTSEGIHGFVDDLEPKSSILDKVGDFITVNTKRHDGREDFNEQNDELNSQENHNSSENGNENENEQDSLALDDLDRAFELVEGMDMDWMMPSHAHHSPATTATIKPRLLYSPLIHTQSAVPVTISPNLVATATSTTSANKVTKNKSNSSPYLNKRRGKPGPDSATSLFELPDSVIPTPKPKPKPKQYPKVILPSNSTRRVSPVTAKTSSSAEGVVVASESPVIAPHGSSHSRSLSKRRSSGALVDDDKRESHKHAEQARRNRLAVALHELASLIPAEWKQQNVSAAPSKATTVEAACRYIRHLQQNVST
Assay: relative binding free energy (BET-seq); higher = weaker binding
Conditions: reference: library average

Sequence | relative binding free energy [kcal/mol]
ATAGTCACGTGTGGTG | 0.09
GTTTGCACGTGTATAT | 0
TTGGTCACGTGAGCTA | 0.26
GTAAACACGTGTAGTG | -0.02
TGATGCACGTGGTAGC | -0.01
CGTGACACGTGTGGAT | -0.12
TAATACACGTGTGGGC | 0.15
TTTGTCACGTGACAGT | 0.24
ATTCTCACGTGTAGGG | 0.16
TTATTCACGTGTTGGT | 0.33
GAAGTCACGTGTCGGT | 0.22
GCGTACACGTGGTATG | 0.1
CGCGTCACGTGTGAGG | 0.07
TCTGGCACGTGGGTTG | -0.11
TGGTTCACGTGATGCT | 0.31
GTTCTCACGTGTGTTG | 0.13
TACTACACGTGTGGTG | -0.08
CTTGACACGTGTTTAG | -0.05
TTTTCCACGTGCGTGA | 0.05
ATCGTCACGTGAGGCG | 0.33
AGCGTCACGTGACGGG | 0.34
GATGTCACGTGCGTGA | 0.1
TAAAACACGTGAATGG | 0.4

Sequence | relative binding free energy [kcal/mol]
TGACACACGTGGGTGT | -0.23
GGTATCACGTGTGTTG | 0.15
TATCGCACGTGAGGTT | 0.18
ATTGTCACGTGCTGGG | 0.13
GTATACACGTGGGGCG | -0.13
GGCGGCACGTGTGCAG | 0.01
GTGTGCACGTGGTGCG | -0.13
CTTGTCACGTGTTGGT | 0.18
CTTGCCACGTGTGGTT | -0.12
ACGGTCACGTGGTTGA | 0.05
TAAGTCACGTGGGCTT | -0.1
ATCTACACGTGGTTAT | 0.1
GTTAACACGTGCGGTA | -0.01
CGTCACACGTGTAGGT | 0.13
ATCGGCACGTGTGTGA | 0.05
TGGGACACGTGAAATT | 0.39
TATTGCACGTGGAGCT | 0
GCTTGCACGTGGTGTG | -0.01
GGTGTCACGTGGTAAT | 0.12
TCGGGCACGTGGGGAT | -0.16
GGCAACACGTGGTGTT | -0.04
TTGTACACGTGTAGCT | -0.04
CGATTCACGTGGAGGG | 0.17

Sequence | relative binding free energy [kcal/mol]
GGTTGCACGTGAGGGG | 0.3
TTATGCACGTGGAGCT | 0.11
GGTGGCACGTGGTAAG | -0.01
CCTGTCACGTGTATGG | 0.12
GTATTCACGTGGGATG | 0.17
AGTTGCACGTGCTTAT | -0.13
TATGTCACGTGTCTTG | 0.17
GGAGGCACGTGGTACG | -0.09
AAGTTCACGTGTGTAT | 0.27
TGTACCACGTGAAGGT | 0.12
TTTGACACGTGTAGTT | 0.15
CTTCACACGTGTGTGG | -0.04
GTATTCACGTGGAGAG | 0.15
CGAGGCACGTGGTGTT | -0.09
TAACACACGTGGTGTT | -0.08
GGGACCACGTGAGGGA | 0.14
GAAAGCACGTGGGTAG | -0.19
TTTTACACGTGGATTC | 0.14
GGAGTCACGTGAGGAA | 0.34
AGTCTCACGTGAGTGT | 0.43
TTTGGCACGTGGACGC | -0.1
TAGTACACGTGGTTGT | 0.05
CTTATCACGTGGGGAT | -0.02

Sequence | relative binding free energy [kcal/mol]
ATATACACGTGGGGCA | -0.1
TTTGGCACGTGTGTAA | -0.08
TGCGTCACGTGGGACG | 0.01
ATGGTCACGTGGTGCG | -0.12
TTTGGCACGTGGTCGA | -0.2
TTTTCCACGTGCTTTT | 0.14
ATGTTCACGTGAAGTT | 0.25
TGTAACACGTGGTCGA | -0.02
GGGTTCACGTGTGTGA | 0.3
TAAAGCACGTGGTGAG | -0.05
GGTAACACGTGTGATT | -0.05
ATGGGCACGTGCATTT | -0.26
AGTGCCACGTGGATGA | -0.02
GTGTGCACGTGCGTAT | -0.11
CGACGCACGTGATGGG | 0.21
AGGGTCACGTGTGCGT | 0.08
GTGTGCACGTGGAATG | 0.11
GGTGGCACGTGGCACT | -0.16
GGAAACACGTGGGCGT | -0.02
TTGGGCACGTGGTAGC | -0.14
TGGTGCACGTGCCTTT | -0.13
GTGTTCACGTGGTCCG | 0.19
CGGCTCACGTGGAGGT | 0.18

Sequence | relative binding free energy [kcal/mol]
GTTCGCACGTGTTTGA | 0.04
ATTGACACGTGAGTAT | 0.18
CTTGTCACGTGCGGTG | 0.05
GGGTCCACGTGAGGAT | 0.28
ATATGCACGTGGCGGA | -0.04
GGTAACACGTGTATGT | -0.04
ATTCTCACGTGATGTT | 0.24
CGGGCCACGTGGGGAG | -0.16
TAAAACACGTGTGAGT | 0.08
TGGGTCACGTGATAGC | 0.15
TTTCTCACGTGGGGGG | 0.19
GTGGACACGTGGAGTC | 0.09
GAATGCACGTGTCTGG | 0.01
GATCACACGTGGGGAG | 0.12
AGGCTCACGTGTATGG | 0.23
GTTTTCACGTGAGACG | 0.5
TATGGCACGTGTTAGT | -0.08
TGGAACACGTGCTTGA | 0.11
GGATTCACGTGTCTTG | 0.26
GGAGTCACGTGGTGCA | 0.08
ATAGCCACGTGGGGGC | -0.28
AAGGCCACGTGGGTTG | -0.14
GAAGACACGTGGCGGT | 0.02
